According to article PMC4336329 (PLoS ONE, 2015):
In all, about 310,000 compounds went through this assay and about 14,000 (4.5%) showed an effect of 50% or more. The effect is printed as a negative number. Some of the results follow.

What follows are compounds tested against human ether-à-go-go-related gene (hERG) potassium channel (human, UniProt Q12809) (assay: primary screen, population patch clamp on CHO cells stably expressing hERG).
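Note: peak tail current of the secondary pulse compared with the same well before compound.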

Chain of human ether-à-go-go-related gene (hERG) potassium channel (Q12809 whole entry, looked up): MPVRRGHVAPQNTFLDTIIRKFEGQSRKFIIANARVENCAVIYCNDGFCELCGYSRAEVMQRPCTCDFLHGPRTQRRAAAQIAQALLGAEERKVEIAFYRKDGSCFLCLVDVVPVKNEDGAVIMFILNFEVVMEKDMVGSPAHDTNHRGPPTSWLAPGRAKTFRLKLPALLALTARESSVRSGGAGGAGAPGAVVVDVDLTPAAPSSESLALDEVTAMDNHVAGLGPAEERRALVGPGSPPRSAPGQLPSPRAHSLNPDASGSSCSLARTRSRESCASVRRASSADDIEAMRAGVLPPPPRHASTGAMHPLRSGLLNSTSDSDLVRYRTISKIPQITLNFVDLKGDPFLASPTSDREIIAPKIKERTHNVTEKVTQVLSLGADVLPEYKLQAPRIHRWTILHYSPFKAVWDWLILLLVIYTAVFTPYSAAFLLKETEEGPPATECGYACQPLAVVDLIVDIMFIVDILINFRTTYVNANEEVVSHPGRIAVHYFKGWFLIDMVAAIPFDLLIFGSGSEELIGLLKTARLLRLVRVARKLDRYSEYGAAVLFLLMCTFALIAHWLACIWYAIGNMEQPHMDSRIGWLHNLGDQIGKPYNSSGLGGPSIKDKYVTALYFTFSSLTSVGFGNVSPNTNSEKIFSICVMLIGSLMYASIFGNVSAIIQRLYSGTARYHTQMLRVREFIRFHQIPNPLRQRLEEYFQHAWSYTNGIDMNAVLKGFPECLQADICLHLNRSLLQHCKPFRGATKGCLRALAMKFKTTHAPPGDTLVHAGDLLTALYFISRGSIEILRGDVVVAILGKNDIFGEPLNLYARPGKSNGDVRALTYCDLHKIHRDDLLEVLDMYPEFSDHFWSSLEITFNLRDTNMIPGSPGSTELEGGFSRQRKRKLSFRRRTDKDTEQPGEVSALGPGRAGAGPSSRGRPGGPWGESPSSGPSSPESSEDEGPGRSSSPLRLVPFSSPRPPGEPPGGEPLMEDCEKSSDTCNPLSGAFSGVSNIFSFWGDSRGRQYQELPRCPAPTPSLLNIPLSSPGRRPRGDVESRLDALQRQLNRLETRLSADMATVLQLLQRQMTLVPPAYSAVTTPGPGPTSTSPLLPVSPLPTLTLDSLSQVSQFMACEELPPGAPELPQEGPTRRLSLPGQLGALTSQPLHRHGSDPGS

Row | SMILES | hERG current change (%, negative = inhibition) at 10uM
1 | COC(=O)c1ccc(CSc2nc3ccccc3c(=O)n2-c2cccc(OC)c2)o1 | 12.8%
2 | O=C(/C=C/c1ccccc1)N(Cc1cccs1)C1CCS(=O)(=O)C1 (centres unmarked) | -30.3%
3 | COc1ccccc1CN1C(=O)[C@@H]2C(CC(N)=O)NC3(C(=O)Nc4c3ccc(Cl)c4C)[C@@H]2C1=O (some centres unmarked) | -4%
4 | C=CCn1c(-c2cccs2)nc2ccccc21 | 3.12%
5 | O=C(Nc1ccccc1)OCc1ccccn1 | 10.8%
6 | Cc1cccc(OCc2nnc(SC(C)C(=O)O)n2Cc2ccccc2)c1 (centres unmarked) | 12.5%
7 | O=C(CSc1nnnn1-c1ccc2c(c1)OCO2)NCc1ccccc1 | -16.9%
8 | CC(C)CNC(=O)C1CCCN1S(=O)(=O)c1ccc(Cl)cc1 (centres unmarked) | 1.04%
9 | Cc1ccc(OCc2nnc(SCC(=O)N3c4ccccc4Sc4ccc(Cl)cc43)o2)cc1 | 6.06%
10 | COc1ccc(NC(=O)CN(C)CC(=O)Nc2ccc(Cl)cc2F)cc1 | -10.6%
11 | CN(Cc1nccs1)C(=O)c1cc(COc2cccc3cnccc23)on1 | -6.13%
12 | COc1cccc(C(O)CC(N)=O)c1 (centres unmarked) | -0.0887%
13 | O=C(O)C1CC(O)CN1C(=S)Nc1ccccc1 (centres unmarked) | 24.1%
14 | C=C(C)C1CC=C(C)/C(=N/NC(=O)c2ccoc2C)C1 (centres unmarked) | -15.5%
15 | CC(Cc1ccc(O)c(O)c1)C(C)Cc1ccc(O)c(O)c1 (centres unmarked) | 9.42%
16 | Cc1ccc(CNS(=O)(=O)c2ccc3c(c2)OCCO3)cc1 | -5.68%
17 | CCCCCC(=O)O[C@]1(C(C)=O)CC[C@H]2[C@@H]3CCC4=CC(=O)CC[C@]4(C)[C@H]3CC[C@@]21C | 15.5%
18 | CCOC(=O)/C(C#N)=C/c1ccc(OCC(=O)Nc2cc(C)ccc2C)c(OC)c1 | 15.3%
19 | Cc1ccc2c(c1)nc(NCCO)n2C.Cl | 2.51%
20 | CCOC(=O)c1c(NC(=O)Cn2nnc(-c3ccccc3Cl)n2)sc(C)c1C | 13.8%
21 | O=C(Nc1cc(C(F)(F)F)ccc1Cl)c1ccncc1 | 2.63%
22 | CC(=O)c1ccc(Nc2c3c(nc4ccccc24)CCCC3)cc1 | -53.3%

Row | SMILES | hERG current change (%, negative = inhibition) at 10uM
23 | COc1ccc(N2C(=NC(=O)CCCc3ccccc3)SC3CS(=O)(=O)CC32)cc1 (centres unmarked) | 19.4%
24 | CC(C)CCN1CC(=O)N2[C@@H](Cc3c([nH]c4ccccc34)C2(C)C)C1=O | 5.85%
25 | O=C(N=Nc1c(O)[nH]c2ccccc12)c1cccs1 | 30.9%
26 | C[n+]1c(-c2ccccc2)cc(-c2ccc(Cl)cc2)cc1-c1ccccc1.[O-][Cl+3]([O-])([O-])[O-] | -84.1%
27 | CC1CN(S(=O)(=O)c2ccc(Cl)c(C(F)(F)F)c2)CC(C)O1 (centres unmarked) | 6.26%
28 | CCn1c(SCC(=O)NC(C)(C)C)nnc1-c1ccccn1 | 17.1%
29 | COc1ccc(-n2c(=S)[nH]c3cc(C(=O)NCc4ccc(F)cc4)ccc3c2=O)c(OC)c1 | 8.03%
30 | CN1Cc2cc(C(=O)c3cc(Cl)cc(CSc4ncccn4)c3O)cnc2NC1=O | 4.17%
31 | CCN(CC(=O)Nc1c(F)cccc1F)C(=O)c1ccc2c(c1)OCCO2 | 6.51%
32 | COc1cc(-c2cc(C(=O)NCc3ccc(S(N)(=O)=O)cc3)c3ccccc3n2)cc(OC)c1OC | 12.1%
33 | Cc1cccc(CN2CCC(N3CC(C)OC(C)C3)CC2)c1.O=C(O)C(=O)O (centres unmarked) | 17.1%
34 | CCSc1nc2ccccc2c(=O)n1Cc1ccc(F)cc1 | 14%
35 | Cc1ccc(CNC(=O)CCC2CCCN(Cc3c(C)nn(C(C)C)c3C)C2)o1 (centres unmarked) | -16.6%
36 | COc1ccc(C(=O)Nc2ccnn2C2CCN(C(=O)c3cccnc3)CC2)cc1 | 12.3%
37 | CCOC(=O)c1ccc(OC(=O)CCCCCN=C(N)N)cc1.CS(=O)(=O)O | -4.82%
38 | Nc1ccccc1-c1nnc(SCc2ccccc2F)[nH]c1=O | 9.95%
39 | COC(=O)c1cc2occc2n1Cc1cccc(C)c1 | 8.35%
40 | O=C(N/N=C/c1cccc(C(F)(F)F)c1)c1ccc(O)cc1 | 31.4%
41 | CCc1ccc(C(=O)N2CCN(c3ccc(NC(=O)c4ccco4)cc3)CC2)cc1 | -16.6%
42 | Cc1ccc(C(=O)NCc2ccco2)o1 | 24%
43 | COc1ccc(CCNC(=O)COC(=O)Cn2cnc3ccccc32)cc1OC | 26.1%
44 | COc1ccc(S(=O)(=O)N2CCc3ccccc32)cc1C(=O)NCCc1ccccn1 | -24.2%

Row | SMILES | hERG current change (%, negative = inhibition) at 10uM
45 | Cc1nnc2n1N=C(c1ccc(F)cc1F)CS2 | -3.32%
46 | COc1ccc(C2/C=C\CN(C(=O)OCc3ccccc3)CC(=O)N2Cc2ccc(F)cc2)cc1 (centres unmarked) | -26%
47 | CCCN1C(=O)/C(=C2/C=Cc3ccccc3N2CC)SC1=S | 14.6%
48 | CCCCc1cc(=O)oc2cc(OC(C)C(=O)NCC3CCC(C(=O)O)CC3)c(Cl)cc12 (centres unmarked) | 5.76%
49 | CCOC(=O)c1ccccc1NC(=O)COC(=O)c1ccc(C)c(S(=O)(=O)N2CCOCC2)c1 | -17.5%
50 | O=C(CCN1C(=O)/C(=C/c2ccccc2Cl)SC1=S)Nc1ccccc1C(=O)O | 19.9%
51 | O=C(CSc1cccc2cccnc12)Nc1cc(C(=O)O)cc(C(=O)O)c1 | 23.1%
52 | Cc1ccc(NC(=O)CSc2nnc(-c3cnccn3)n2Cc2ccco2)cc1C | -17.6%
53 | O=S(=O)(Nc1cccc(-c2ccc3nncn3n2)c1)c1cccc(F)c1 | -38.2%
54 | COc1cccc(/C=N/NC(=O)CN(C)S(=O)(=O)c2ccccc2)c1OC | -10.6%
55 | Cc1ccc(C)c(S(=O)(=O)NCc2cccnc2)c1 | 5.24%
56 | COC(=O)c1[nH]c2ccccc2c1NC(=O)CN1CCN(Cc2ccc3c(c2)OCO3)CC1 | -73.7%
57 | COc1ccc(CNC(=S)Nc2cc(C)cc(C)c2)cc1 | 2.91%
58 | Cc1oc(C)c2c(=O)ccc3c(c12)OC(N)=C(C#N)C3c1ccccc1 (centres unmarked) | 12%
59 | C/C(=N\OC(=O)Nc1ccccc1)c1cnn(-c2cc(C(F)(F)F)cc(C)n2)c1C | 5.54%
60 | CC(=O)c1ccc(N2CCN(S(=O)(=O)c3cccc(S(=O)(=O)N4CCOCC4)c3)CC2)cc1 | -6.92%
61 | CN1CCN(NC(=O)CN2C(=O)/C(=C/c3ccccc3Cl)SC2=S)CC1 | -18.4%
62 | O=C1C=C(c2ccccc2)C(O)(c2ccccc2)C1 (centres unmarked) | 3.4%
63 | Cc1cc(C)c(NC(=O)NC(=O)C(Cl)(Cl)Cl)c(C)c1 | 23.5%
64 | CN1C(=O)Cc2cc(S(=O)(=O)NCc3c(F)cccc3Cl)ccc21 | 10.4%
65 | CC(=O)Nc1ccc(NC(=O)c2sc3nc4c(c(-c5ccc(C)cc5)c3c2N)CCC4)cc1 | 14.1%
66 | Cc1c(S(=O)(=O)N2CCC(C)CC2)c(=O)n(C)c(=O)n1C | -0.636%

Row | SMILES | hERG current change (%, negative = inhibition) at 10uM
67 | O=C(NCc1cccs1)c1ccc(CS(=O)Cc2cccc(Cl)c2)o1 (centres unmarked) | -39.6%
68 | NCCSc1c(-c2ccc(F)cc2)[nH]c2ccccc12 | -37.9%
69 | COC(=O)Cc1csc(Nc2ccccc2Cl)n1 | -5.19%
70 | Cc1cccc(C(=O)NNC(=O)Nc2ccccc2)c1 | 15.3%
71 | Cc1ccc(C)c(S(=O)(=O)N2CCCCC2CCNC(=O)C(=O)NC2CCCC2)c1 (centres unmarked) | -33.2%
72 | CCc1nc(NCCCCCO)c2nnn(Cc3ccccc3F)c2n1 | -28.8%
73 | c1ccc2c(c1)Nc1cc3ccccc3cc1S2 | 8.83%
74 | CC(=O)c1c(OC(=O)c2ccc(C)cc2)c2ccccc2n1C | 0.631%
75 | CC(C)CN1C(=O)c2ccc(C(=O)Nc3ccc(OCC(=O)O)cc3)cc2C1=O | 5.95%
76 | CC(=O)Nc1ccc(C(=O)CSc2nnc(-c3ccc(O)cc3)n2CC2CCCO2)cc1 (centres unmarked) | 12.7%
77 | CC1=NN2C(=N)/C(=C\c3ccc(SCc4ccccc4)o3)C(=O)N=C2S1 | -4.06%
78 | CCOc1ccc(CNC(=S)N/N=C/c2ccncc2)cc1 | -1.2%
79 | COc1cccc(OC(=O)CSc2nnc(-c3ccccc3Br)o2)c1 | 10.6%
80 | O=C(Nc1cccc(C(F)(F)F)c1)C1CCCN(c2ncccn2)C1 (centres unmarked) | -53.4%
81 | NC(=O)c1c(-c2ccc(Cl)cc2Cl)csc1NC(=O)Cc1ccccc1 | 2.33%
82 | COc1ccc(OC)c(-c2csc(NC(=O)COC(=O)C3(C)CC3(Cl)Cl)n2)c1 (centres unmarked) | -3.11%
83 | NS(=O)(=O)c1ccc(CNC(=O)CCC2CCCCC2)cc1 | -2.5%
84 | O=C1CCC([N+](=O)[O-])C(C2CC=CCC2)N1 (centres unmarked) | 4.76%
85 | Cc1ccc(NC(=O)CSc2nc(O)c(Cc3ccccc3)c(=O)n2-c2ccccc2)cc1 | 8.57%
86 | O=C(Nc1nnc(COc2ccc(Cl)cc2)s1)c1ccc([N+](=O)[O-])cc1 | 4.86%
